The other results are listed elsewhere or left out. Shown are side measurements of this screen, not its main read-out; they come without a call.
What was measured:
Experiment in all cases: Primary Screen for Target Class Profiling of Small Molecule Inhibitors of Methyltransferases
[1] = biological target: Glycine N-methyltransferase (Homo sapiens) (UniProt Q14749); conditions: purified enzyme, MTase-Glo SAH luminescence; measured here: GNMT inhibition; at 40 µM; stronger effect = lower value
How it was run: (§1)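 Each enzyme was assayed with SAM and its substrate. SAH formation detected by MTase-Glo luminescence; single-point 40 uM screen[…].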

[2] = biological target: Guanidinoacetate N-methyltransferase (Homo sapiens) (UniProt Q14353); conditions: purified enzyme, MTase-Glo SAH luminescence; measured here: GAMT inhibition; at 40 µM; stronger effect = lower value
How it was run: as §1

[3] = biological target: Histamine N-methyltransferase (Homo sapiens) (UniProt P50135); conditions: purified enzyme, MTase-Glo SAH luminescence; measured here: HNMT inhibition; at 40 µM; stronger effect = lower value
How it was run: as §1

[4] = biological target: Nicotinamide N-methyltransferase (Homo sapiens) (UniProt P40261); conditions: purified enzyme, MTase-Glo SAH luminescence; measured here: NNMT inhibition; at 40 µM; stronger effect = lower value
How it was run: as §1

[5] = biological target: Phenylethanolamine N-methyltransferase (Homo sapiens) (UniProt P11086); conditions: purified enzyme, MTase-Glo SAH luminescence; measured here: PNMT inhibition; at 40 µM; stronger effect = lower value
How it was run: as §1
% is scaled to controls: 0 for no effect and ±100 for the full control effect.

`CN(CCN1C(=O)c2cc3sccc3n2CC1(C)C(=O)NC1CCCCCCC1)C1CCCCC1` (stereo not given) gave an activity change, negative = inhibition [1] of 2.57%, an activity change, negative = inhibition [2] of 3.62% and an activity change, negative = inhibition [3] of 0.984%. The activity change, negative = inhibition [4] was 8.34% and the activity change, negative = inhibition [5] was -1.23%.

In the case of `CC(C)OCCCn1c(=O)c2cc(Cl)ccc2n2c(SCc3ccccc3Cl)nnc12`, the activity change, negative = inhibition [1] is reported as 1.26%, the activity change, negative = inhibition [2] is reported as 0% and the activity change, negative = inhibition [3] is reported as 3.43%. It also gave an activity change, negative = inhibition [4] of 2.53% and an activity change, negative = inhibition [5] of 4.09%.

For `CNc1cccc(CCOc2ccc3c(c2)CN(CC(F)(F)F)C(=O)[C@H](CC(=O)O)C3)n1`, the activity change, negative = inhibition [1] was -1.41%, the activity change, negative = inhibition [2] was -5.17% and the activity change, negative = inhibition [3] was 6.84%. The activity change, negative = inhibition [4] was -19.2% and the activity change, negative = inhibition [5] was -1.05%.

`O=[S+]1([O-])NC2(CCN(Cc3ccoc3)CC2)COc2ccccc21` gave an activity change, negative = inhibition [1] of -2.72%, an activity change, negative = inhibition [2] of -5.23% and an activity change, negative = inhibition [3] of -4.92%. It also gave an activity change, negative = inhibition [4] of -5.3% and an activity change, negative = inhibition [5] of -3%.

Work on `CC1CC2(O)OC(=O)C3=C2C(CCC3)[C@@]12C[C@@H](c1ccoc1)OC2=O` (stereo not given in full) yielded an activity change, negative = inhibition [1] of 2.85%, an activity change, negative = inhibition [2] of 0.488% and an activity change, negative = inhibition [3] of 8.46%. For the same compound, the activity change, negative = inhibition [4] was -12.9% and the activity change, negative = inhibition [5] was -4.11%.

`CCc1noc(-c2nc(Cc3cccc(F)c3)no2)n1` was tested, and the activity change, negative = inhibition [1] was -2%, the activity change, negative = inhibition [2] was -7.16% and the activity change, negative = inhibition [3] was 1.89%. The activity change, negative = inhibition [4] was -3.17% and the activity change, negative = inhibition [5] was -0.48%.

Work on `Cc1ccc(NC(=O)c2cc3n(n2)CC(C)(C(=O)NC2CCCCCC2)N(C)C3=O)cc1` (stereo not given) yielded an activity change, negative = inhibition [1] of 7.23%, an activity change, negative = inhibition [2] of 3.15% and an activity change, negative = inhibition [3] of 4.5%. The activity change, negative = inhibition [4] was 6.81% and the activity change, negative = inhibition [5] was -0.718%.

With `c1ccc(CN2CCn3c4c(c5cc(C6CCCCC6)ccc53)CCCC42)cc1` (stereo not given) the activity change, negative = inhibition [1] was 7.69%, the activity change, negative = inhibition [2] was -1.36% and the activity change, negative = inhibition [3] was 9.03%. The activity change, negative = inhibition [4] was 12.5% and the activity change, negative = inhibition [5] was 2.85%.

In the case of `CSc1ccc(CCNC(=O)CCc2nnc3ccc(NCCCN4CCCC4=O)nn23)cc1`, the activity change, negative = inhibition [1] is reported as 1.07%, the activity change, negative = inhibition [2] is reported as 1.82% and the activity change, negative = inhibition [3] is reported as 0.405%. It also gave an activity change, negative = inhibition [4] of -7.88% and an activity change, negative = inhibition [5] of 4.15%.

`COC(=O)c1ncn2c1C(=O)N(c1ccc(C(C)C)cc1)C(C)(C(=O)NCc1ccccc1)C2` (stereo not given) was tested, and the activity change, negative = inhibition [1] was -14.3%, the activity change, negative = inhibition [2] was -3.63% and the activity change, negative = inhibition [3] was -9.45%. It also gave an activity change, negative = inhibition [4] of -7.25% and an activity change, negative = inhibition [5] of -9.63%.

`CC1(C)CN(C(=O)c2ccnc(-n3cnnc3)c2)CC1(C)O` (stereo not given) showed an activity change, negative = inhibition [1] of -6.17%, an activity change, negative = inhibition [2] of -10.3% and an activity change, negative = inhibition [3] of -4.62%. It also gave an activity change, negative = inhibition [4] of -12.5% and an activity change, negative = inhibition [5] of -7.65%.

In the case of `O=C(O)C1=CCCNC1`, the activity change, negative = inhibition [1] is reported as 3.19%, the activity change, negative = inhibition [2] is reported as 9.36% and the activity change, negative = inhibition [3] is reported as 8.53%. It also gave an activity change, negative = inhibition [4] of -8.26% and an activity change, negative = inhibition [5] of -2.05%.

`COc1cc(-c2nn(C3CCC(N4CCN(C(C)=O)CC4)CC3)c3ncnc(N)c23)ccc1NC(=O)c1cc2ccccc2n1C` (stereo not given) was tested, and the activity change, negative = inhibition [1] was -4.9%, the activity change, negative = inhibition [2] was 4.28% and the activity change, negative = inhibition [3] was -3.94%. It also gave an activity change, negative = inhibition [4] of -16.3% and an activity change, negative = inhibition [5] of -7%.

For `CCCn1c(=O)c2ccc(C(=O)NC3CCCC3)cc2n2c(=O)n(CC(=O)c3ccc(C)cc3C)nc12`, the activity change, negative = inhibition [1] was 3.46%, the activity change, negative = inhibition [2] was 2.4% and the activity change, negative = inhibition [3] was 5.89%. For the same compound, the activity change, negative = inhibition [4] was -1.29% and the activity change, negative = inhibition [5] was 0.854%.

`CC(/C=C/C1(O)C(C)CC(O)CC1(C)C)OC1OC(CO)C(O)C(O)C1O` (stereo not given) showed an activity change, negative = inhibition [1] of 0.065%, an activity change, negative = inhibition [2] of 8.27% and an activity change, negative = inhibition [3] of 13.5%. The activity change, negative = inhibition [4] was -3.33% and the activity change, negative = inhibition [5] was 5.4%.

Work on `CCCn1c(=O)c2cc(F)ccc2n2c(SCc3ccc(F)cc3Cl)nnc12` yielded an activity change, negative = inhibition [1] of -9.32%, an activity change, negative = inhibition [2] of 0.035% and an activity change, negative = inhibition [3] of 2.39%. It also gave an activity change, negative = inhibition [4] of -11.9% and an activity change, negative = inhibition [5] of 1.12%.

`CN1CCN(CCOc2cc(OC3CCOCC3)c3c(Nc4c(Cl)ccc5c4OCO5)ncnc3c2)CC1` gave an activity change, negative = inhibition [1] of -29.3%, an activity change, negative = inhibition [2] of -4.15% and an activity change, negative = inhibition [3] of -81.2%. The activity change, negative = inhibition [4] was -50.4% and the activity change, negative = inhibition [5] was -20.4%.

From PubChem BioAssay AID1745853 (National Center for Advancing Translational Sciences (NCATS), 2022)
